Reference: ChEMBL document CHEMBL1157539, “Thousands of chemical starting points for antimalarial lead identification” (Nature, 2010)
Whole data set: some 13,000 compounds, median “IFI” near 4, cut for the highest 2% near 17. The list shows a part of the results.

Assay: GSK_TCMDC: Inhibition Frequency Index (IFI). The number of non-kinase HTS assays where a compound showed > 50 % inhibition, expressed as a percentage of the number of such assays in which the compound was tested (-0 is zero)
Type: functional
With NC(=O)c1ccccc1Nc1nc(Nc2cccc(N3CCN(CCO)CC3)c2)ncc1Cl the IFI was 7.14%.
Work on C=CCn1c(SCC(=O)Nc2cc(Cl)ccc2Cl)nc2sc(C)cc2c1=O yielded an IFI of 5.08%.
CC(Nc1ccc2c(c1)CCC2)C(=O)Nc1cc(C(F)(F)F)ccc1N1CCOCC1 (stereo unspecified) gave an IFI of 2.08%.
Compound O=C(NC1CC1)c1ccc(N2CCCC(COc3ccccc3F)C2)nc1 (stereo unspecified) has an IFI of 0%.
With COc1ccccc1N1CCN(C(C(=O)NCc2ccc(C)cc2)c2ccc(C)cc2)CC1 (stereo unspecified) the IFI was 2.07%.
With O=C(NCCCCN1CCN(c2cccc3ccccc23)CC1)c1ccc(NC(=O)c2ccc(Cl)cc2)cc1 the IFI was 5.17%.
Compound COc1ccc(N2CCN(CCCCNCc3ccc(NC(=O)c4cc(Cl)cc(Cl)c4)cc3)CC2)c(OC)c1 has an IFI of 10.3%.
With COC(=O)c1cccc(CNCc2cccc(-c3csc(-c4nc5ccccc5[nH]4)c3)c2)c1 the IFI was 7.62%.
For CCN1C(=O)C(=NN=C(S)N2CCCC2)c2ccccc21, the IFI was 4.32%.
O=C(NCCCCCN1CCC(c2c[nH]c3ccccc23)CC1)Nc1cccc(C(F)(F)F)c1 showed an IFI of 4.9%.
O=C(NCCN1CCCCC1)c1ccc(CNC(=O)c2ccc(O)c(-c3cccc(C(F)(F)F)c3)c2)cc1 gave an IFI of 1.47%.
For CC(C)(C)NCc1cc(Nc2ccnc3cc(Cl)ccc23)ccc1F, the IFI was 15.2%.
CCCc1cc(C(=O)N[C@@H](Cc2ccccc2)[C@H](O)CNC(C)C)c(F)c(N2CCCC2=O)c1 showed an IFI of 0.72%.
COc1ccc(-c2ccc(NC(=O)c3ccc(C#N)cc3)c(F)c2)cc1CN(C)CCN(C)C gave an IFI of 1.2%.
O=C(COc1ccccc1)Nn1cnc2ccccc21 gave an IFI of 1.72%.
Cc1ccccc1C(=O)Nc1cccc(-c2nc3ncccn3c2C)c1 gave an IFI of 1.45%.
For Cc1nc(-c2cccc(C(F)(F)F)c2)n2nc(Nc3ccc(OCCN4CCCC4)cc3)ncc12, the IFI was 5.47%.
CCOc1ccc2c(c1)OC(c1ccccc1)(C(F)(F)F)NC2=O (stereo unspecified) showed an IFI of 1.39%.
Work on O=C(NOCCOc1ccccc1)c1ccccc1 yielded an IFI of 1.52%.
For COc1ccc(C2CCN(CCCNC(=O)c3ccc(NC(=O)c4ccc(Cl)cc4)cc3)CC2)c(OC)c1, the IFI was 4.59%.
Compound COc1ccc(CNC(=O)c2cnc3cc(-c4c(C)noc4C)ccc3c2Nc2ccccc2C(C)(C)C)cc1 has an IFI of 3.45%.
In the case of Nc1nc(N)c2c(ccc3c2ccn3Cc2cccc(F)c2)n1, the IFI was 10.1%.
For CC1CN(c2ccc3[nH]cc(Sc4ccc(-c5cccs5)cc4)c3c2)CC(C)N1 (stereo unspecified), the IFI was 13.1%.
Work on Cn1cncc1-c1ccc2c(-c3ccsc3)cnc(N)c2c1 yielded an IFI of 3.7%.
Compound c1ccc(CN2CCC(Nc3ccc(-c4c[nH]nc4-c4ccccn4)nc3)CC2)cc1 has an IFI of 2.54%.
With CCCCn1c(C(C)Oc2ccc(Cl)cc2Cl)nc2cc(S(N)(=O)=O)ccc21 (stereo unspecified) the IFI was 4.23%.
O=C(NC1CCN(c2ccnc3cc(Cl)ccc23)C1)c1ccccc1F (stereo unspecified) showed an IFI of -0%.
Work on Cc1cccc2nc(-c3ccc(-c4ccc(CN5CCCC5CN)cc4)cc3)[nH]c12 (stereo unspecified) yielded an IFI of 7%.
Work on C=CCOC(=O)N1CCC(CNCc2ccc(-c3cccc(-c4nc5ccccc5[nH]4)c3)cc2)C1 (stereo unspecified) yielded an IFI of 3.88%.
Work on Cc1ccccc1Nc1cc(Nc2ccccc2C)c2ccccc2n1 yielded an IFI of 16.6%.
With COc1ccc(C2N=C(N)N=C(N)N2OCc2ccccc2)cc1OC (stereo unspecified) the IFI was 0.73%.
Compound Cc1nc2ccccc2c(O)c1[N+](=O)[O-] has an IFI of 0%.
With COc1ccc(-c2nc3cc4ccccc4nc3[nH]2)c(OCC(O)CNC(C)C)c1 (stereo unspecified) the IFI was 1.57%.
With CCN(CCCNc1nc(=S)[nH]c2cc(OC)c(OC)cc12)c1ccccc1 the IFI was 3.36%.
Work on CN1CCN(Cc2cccc(-c3cc4nccc(Nc5ccc(Oc6ccccc6)cc5)c4cc3Cl)c2)CC1 yielded an IFI of 5.76%.
Cc1cc(-c2cccc3c(C(=O)N4CCc5cc6nccc(N7CCCN(C)CC7)c6cc54)cccc23)cc(C)n1 gave an IFI of 4.93%.
In the case of Cc1nn(-c2ccccc2)nc1C(=O)NC1CCN(CCNC(=O)c2ccc(Cl)c(Cl)c2)CC1, the IFI was 2.04%.
For O=C(Cc1ccc(-c2ccccc2)cc1)N[C@H]1CCN(Cc2ccc(OCCCN3CCCCC3)cc2)C1, the IFI was 7.53%.
Cc1ccccc1C1CCN(C2CCC(NC(=O)c3cc4cc(Cl)ccc4o3)CC2)CC1 (stereo unspecified) gave an IFI of 6.78%.
Work on Cc1noc(C)c1-c1ccc2c(Nc3ccccc3N3CCOCC3)c(C(=O)NCc3ccccc3)cnc2c1 yielded an IFI of 12.8%.
Work on Clc1cc(Nc2ccnc3ccc(Br)cc23)ccc1Oc1ccc2ccccc2c1Cl yielded an IFI of 0.79%.
Compound CC(=O)c1cccc(NC(=O)N2CCCN(CCCCCNC(=O)/C=C/c3ccc(Cl)c(Cl)c3)CC2)c1 has an IFI of 2.7%.
For CCCCCCN1CCC(NCc2ccc(OCCN3CCCC3)cc2)CC1, the IFI was 4%.
Work on CN(C)Cc1c(O)ccc2[nH]c(-c3ccc(F)cc3F)nc12 yielded an IFI of 3.61%.
Work on Cc1ccc(O)cc1Nc1c(C(N)=O)cnc2ccc(-c3cncs3)cc12 yielded an IFI of 5.11%.
Compound Cc1cc(N2CCOCC2)nc(Nc2ccc(NC(=O)Nc3ccc(F)cc3)cc2)n1 has an IFI of 3.92%.
For CC1(C)C(=O)Nc2ccccc2N1C(=O)CN1CCN(c2ccccc2O)CC1, the IFI was -0%.
Work on CCCC(CCC)n1ccc2c3c(N)nc(N)nc3ccc21 yielded an IFI of 8.97%.
FC(F)(F)c1ccc2[nH]ccc(=NN=Cc3cccnc3)c2c1 gave an IFI of 0%.
Compound Cc1ccc2nc(C)n(C3CCN(C(=O)Cc4ccccc4C)CC3)c2c1 has an IFI of -0%.
With COc1cc(Cc2c(C)nc3nc(N)nc(N)c3c2C)c(Br)c(OC)c1OC the IFI was 1.46%.
In the case of CC(C)Oc1cc2c(cc1NS(=O)(=O)c1ccc(-c3ccc(Cl)cc3)cc1F)CCN(C)CC2, the IFI was 9.52%.
Fc1ccc2[nH]cc(CCNCc3ccc(-c4cccc(-c5nc6ccccc6[nH]5)c4)cc3)c2c1 gave an IFI of 17.8%.
With N#Cc1ccc2c(c1)CCN(CCC1CCC(NC(=O)/C=C/c3ccc(Cl)c(Cl)c3)CC1)CC2 (stereo unspecified) the IFI was 8.11%.
CCOc1cc(C(=O)NC2CC(C)(C)N(C)C(C)(C)C2)ccc1-c1nc2cc(Cl)c(Cl)cc2[nH]1 gave an IFI of 6.98%.
In the case of CC(CN(C)C)C(=O)Nc1ccc(-c2ccc(-c3nc4cc(F)ccc4[nH]3)cc2)cc1 (stereo unspecified), the IFI was 3.42%.
For CCC(CSC1CCCCC1)N(C)CCN(C)C(CC)CSC1CCCCC1 (stereo unspecified), the IFI was 12.4%.
CCCCN(Cc1cccc(C(F)(F)F)c1Cl)c1ccc(C(O)(C(F)(F)F)C(F)(F)F)cc1 showed an IFI of 4.38%.
Cc1ccc(O)cc1Nc1ccnc2cc(-c3csc(CNCCN4CCOCC4)n3)ccc12 showed an IFI of 4.17%.
Work on O=C(NC(=S)Nc1cc(C(F)(F)F)cc(C(F)(F)F)c1)c1ccc(Cl)cc1 yielded an IFI of 4.38%.
Compound CCCCOc1cc(OC)c2ccccc2c1CCNCCCCNCCc1c(OCCCC)cc(OC)c2ccccc12 has an IFI of 19.1%.
